31 sequences from paper PMC12820563, “FoxP3 forms a head-to-head dimer in vivo and stabilizes its multimerization on adjacent microsatellites” can be followed below.

Some of the results follow.

The target in this assay is T1, MBP-FoxP1dN (Mus musculus, UniProt P58462 326-579).
T1 sequence: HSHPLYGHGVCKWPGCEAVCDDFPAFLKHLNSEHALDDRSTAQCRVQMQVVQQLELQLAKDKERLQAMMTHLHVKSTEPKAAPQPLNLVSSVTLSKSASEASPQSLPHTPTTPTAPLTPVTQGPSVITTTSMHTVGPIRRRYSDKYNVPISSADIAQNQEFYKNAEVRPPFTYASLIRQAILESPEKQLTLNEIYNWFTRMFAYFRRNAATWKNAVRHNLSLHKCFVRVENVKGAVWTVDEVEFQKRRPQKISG
The assay can be described thus: PD-seq (MBP pull-down with sequencing); 20 mM Tris-HCl pH 7.5, 100 mM NaCl, 1.5 mM MgCl2, 0.4 uM protein, 0.1 uM dsDNA library, 30 min, room temperature, amylose pull-down; high values mean tight binding. The settings on record: protein: recombinant; tags: His6-MBP; chain copies: 2; dsDNA, one strand shown. A digest of the protocol: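 Binding is given as reads-per-million enrichment, pull-down over input, with replicates pooled. The bait was an N-terminus-lacking mouse FoxP3 or FoxP1 fragment with a His6-MBP tag, expressed in E. coli and used at 0.4 µM with 0.1 µM Klenow-filled degenerate double-stranded DNA library for 30 min at room temperature in Tris pH 7.5 buffer with NaCl and MgCl2. Amylose resin pull-down with three washes was followed by proteinase K release, PCR barcoding and Illumina sequencing.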
Take “GATGATTGTTCTCCCAGCTGATGAATTATAAATTTCGAGTAAACAAATTTTCCTAATCTTTCTGTTCAAGCGCCATCTAC”: the binding signal is 0.978 RPM ratio (pull-down/input). For “GATGATTGTTCTCCCAGCTGATGAATTTATCTAGTCGAGTAAACAAATTTTCCTAATCTTTCTGTTCAAGCGCCATCTAC” the value was 1.12 RPM ratio (pull-down/input); for “GATGATTGTTCTCCCAGCTGATGAATTATCTACTTCGAGTAAACAAATTTTCCTAATCTTTCTGTTCAAGCGCCATCTAC”, 1.05 RPM ratio (pull-down/input).

As for “GATGATTGTTCTCCCAGCTGATGAATTACATATTTCGAGTAAACAAATTTTCCTAATCTTTCTGTTCAAGCGCCATCTAC”, the binding signal was 1.31 RPM ratio (pull-down/input). The same measure for “GATGATTGTTCTCCCAGCTGATGAATTATCACTTTCGAGTAAACAAATTTTCCTAATCTTTCTGTTCAAGCGCCATCTAC”: 1.03 RPM ratio (pull-down/input).

With “GATGATTGTTCTCCCAGCTGATGAATTCTAACGCTCGAGTAAACAAATTTTCCTAATCTTTCTGTTCAAGCGCCATCTAC”, the binding signal is 0.98 RPM ratio (pull-down/input). With “GATGATTGTTCTCCCAGCTGATGAATTCGGGTCTTCGAGTAAACAAATTTTCCTAATCTTTCTGTTCAAGCGCCATCTAC”, the binding signal was 0.811 RPM ratio (pull-down/input). For “GATGATTGTTCTCCCAGCTGATGAATTAGCTTCCTCGAGTAAACAAATTTTCCTAATCTTTCTGTTCAAGCGCCATCTAC”, the binding signal was 0.821 RPM ratio (pull-down/input).

In the case of “GATGATTGTTCTCCCAGCTGATGAATTGTCAATATCGAGTAAACAAATTTTCCTAATCTTTCTGTTCAAGCGCCATCTAC”, the binding signal was 2.23 RPM ratio (pull-down/input). For “GATGATTGTTCTCCCAGCTGATGAATTGGGACAGTCGAGTAAACAAATTTTCCTAATCTTTCTGTTCAAGCGCCATCTAC” the value was 0.879 RPM ratio (pull-down/input). The same measure for “GATGATTGTTCTCCCAGCTGATGAATTATCTCTCTCGAGTAAACAAATTTTCCTAATCTTTCTGTTCAAGCGCCATCTAC”: 0.93 RPM ratio (pull-down/input). The same measure for “GATGATTGTTCTCCCAGCTGATGAATTGGGTCTTTCGAGTAAACAAATTTTCCTAATCTTTCTGTTCAAGCGCCATCTAC”: 0.834 RPM ratio (pull-down/input); for “GATGATTGTTCTCCCAGCTGATGAATTCATTATGTCGAGTAAACAAATTTTCCTAATCTTTCTGTTCAAGCGCCATCTAC”: 0.872 RPM ratio (pull-down/input).

With “GATGATTGTTCTCCCAGCTGATGAATTTTTTCCATCGAGTAAACAAATTTTCCTAATCTTTCTGTTCAAGCGCCATCTAC”, the binding signal was 0.966 RPM ratio (pull-down/input). As to “GATGATTGTTCTCCCAGCTGATGAATTTGTACTTTCGAGTAAACAAATTTTCCTAATCTTTCTGTTCAAGCGCCATCTAC”, the binding signal is 1.17 RPM ratio (pull-down/input). For “GATGATTGTTCTCCCAGCTGATGAATTACCCACCTCGAGTAAACAAATTTTCCTAATCTTTCTGTTCAAGCGCCATCTAC” the value was 0.949 RPM ratio (pull-down/input); for “GATGATTGTTCTCCCAGCTGATGAATTCGTGACGTCGAGTAAACAAATTTTCCTAATCTTTCTGTTCAAGCGCCATCTAC”, 0.913 RPM ratio (pull-down/input). Turning to “GATGATTGTTCTCCCAGCTGATGAATTGGTCGTGTCGAGTAAACAAATTTTCCTAATCTTTCTGTTCAAGCGCCATCTAC”, the binding signal is 0.942 RPM ratio (pull-down/input). For “GATGATTGTTCTCCCAGCTGATGAATTAATATGCTCGAGTAAACAAATTTTCCTAATCTTTCTGTTCAAGCGCCATCTAC” the value was 1.11 RPM ratio (pull-down/input). For “GATGATTGTTCTCCCAGCTGATGAATTAAGCCCATCGAGTAAACAAATTTTCCTAATCTTTCTGTTCAAGCGCCATCTAC” the value was 0.894 RPM ratio (pull-down/input); for “GATGATTGTTCTCCCAGCTGATGAATTCGTTCACTCGAGTAAACAAATTTTCCTAATCTTTCTGTTCAAGCGCCATCTAC”, 0.968 RPM ratio (pull-down/input).

“GATGATTGTTCTCCCAGCTGATGAATTATGGCTTTCGAGTAAACAAATTTTCCTAATCTTTCTGTTCAAGCGCCATCTAC”: the binding signal was 0.964 RPM ratio (pull-down/input). The same measure for “GATGATTGTTCTCCCAGCTGATGAATTTTACTCATCGAGTAAACAAATTTTCCTAATCTTTCTGTTCAAGCGCCATCTAC”: 0.957 RPM ratio (pull-down/input); for “GATGATTGTTCTCCCAGCTGATGAATTTTAGCCATCGAGTAAACAAATTTTCCTAATCTTTCTGTTCAAGCGCCATCTAC”: 0.953 RPM ratio (pull-down/input). With “GATGATTGTTCTCCCAGCTGATGAATTCGCGACGTCGAGTAAACAAATTTTCCTAATCTTTCTGTTCAAGCGCCATCTAC”, the binding signal is 0.832 RPM ratio (pull-down/input). The same measure for “GATGATTGTTCTCCCAGCTGATGAATTTTTAATTTCGAGTAAACAAATTTTCCTAATCTTTCTGTTCAAGCGCCATCTAC”: 1.24 RPM ratio (pull-down/input). For “GATGATTGTTCTCCCAGCTGATGAATTTAGATCATCGAGTAAACAAATTTTCCTAATCTTTCTGTTCAAGCGCCATCTAC” the value was 1.07 RPM ratio (pull-down/input). For “GATGATTGTTCTCCCAGCTGATGAATTCGCGTTATCGAGTAAACAAATTTTCCTAATCTTTCTGTTCAAGCGCCATCTAC” the value was 1.02 RPM ratio (pull-down/input). For “GATGATTGTTCTCCCAGCTGATGAATTGAACACCTCGAGTAAACAAATTTTCCTAATCTTTCTGTTCAAGCGCCATCTAC”, the binding signal is 0.851 RPM ratio (pull-down/input). For “GATGATTGTTCTCCCAGCTGATGAATTGGTACGCTCGAGTAAACAAATTTTCCTAATCTTTCTGTTCAAGCGCCATCTAC” the value was 0.998 RPM ratio (pull-down/input); for “GATGATTGTTCTCCCAGCTGATGAATTCCGCCACTCGAGTAAACAAATTTTCCTAATCTTTCTGTTCAAGCGCCATCTAC”, 0.908 RPM ratio (pull-down/input).
